# PubChem BioAssay AID1671194 (National Center for Advancing Translational Sciences (NCATS), 2021)
# The whole screen tested about 140,000 compounds, of which about 240 (0.17%) were called active. Inconclusive means that the source gave no clear call. Such entries were picked first, then a sample of the others. Calls come from the whole dose curve; as a rule, active = well fitted inhibition curve with a large enough effect; inconclusive = small, poorly fitted or top-dose-only effect; inactive = no such curve, though single readings can be large or run the other way. Where the call is inconclusive, the potency comes from a doubtful curve fit.
# Assay: Primary qHTS assay for inhibitors of alpha-synuclein gene (SNCA) expression; note: nearly all actives have a fitted effect of over 45% in size
# Details: HEK-293 SNCA-luciferase knock-in, luminescence, 24 h; series mostly up to 57.2 µM
# Potency is the fitted concentration of half-maximal effect; tags give direction and shape of the fitted curve.
row,Compound,Potency
1,CCOc1ccc(NC(=O)CCn2cnc3onc(-c4ccc(F)cc4)c3c2=O)cc1,"inconclusive: 8.91 µM [inhibitor, partial curve, poor fit]"
2,Cn1c(Cn2cccn2)nnc1C1CC(Nc2ncnc3sccc23)C1 (stereo not drawn),"inconclusive: 10 µM [inhibitor, partial curve, poor fit]"
3,Cc1ccc(NC(=O)c2ccc3c(c2)N(S(C)(=O)=O)CC3)cc1,inactive
4,Cc1ccc(-n2c(C3CCN(C(=O)c4nn(C)c5ccccc45)CC3)n[nH]c2=O)cc1,inactive
5,CCOc1cc(S(=O)(=O)n2ccnc2C(C)C)ccc1Cl,"inconclusive: 3.55 µM [inhibitor, partial curve, poor fit]"
6,CNC(=O)c1cc(Oc2ccc(NC(=O)Nc3cc(C(C)(C)C)nn3-c3ccc4ncccc4c3)c(F)c2)ccn1,"inconclusive: 24.1 µM [inhibitor, partial curve]"
7,COc1cccc(NC(=O)[C@@H]2C[C@H](c3ccc(F)cc3)N(Cc3csc(C)n3)C2)c1,"inconclusive: 20 µM [inhibitor, single point]"
8,Cn1cc(CN[C@H]2[C@H](O)[C@H](O)C[C@@H]2c2cccnc2)c2ccccc21,"inconclusive: 50.1 µM [inhibitor, single point]"
9,CCc1ccc(NC(=O)C2CCN(S(=O)(=O)c3ccc4[nH]c5c(c4c3)CCCCC5)CC2)cc1,"inconclusive: 12.6 µM [inhibitor, single point]"
10,O=C(c1ccccc1)N1CC2(CCCCN2Cc2cccnc2)Cc2ccccc21 (stereo not drawn),"inconclusive: 3.16 µM [inhibitor, single point]"
11,Cc1cccc(NC(=O)c2nc(S(C)(=O)=O)ncc2Cl)c1,"inconclusive: 17.8 µM [inhibitor, partial curve, poor fit]"
12,COc1ccc(-c2cc3ccc(O)c(CN4CCOCC4)c3oc2=O)cc1,"inconclusive: 12.6 µM [inhibitor, partial curve, poor fit]"
13,COCc1nncn1C1CCN(C(=O)c2ccc(F)c(Cl)c2)CC1,"inconclusive: 2.24 µM [inhibitor, partial curve, poor fit]"
14,CCOc1ccc2nc(C)cc(Nc3ccccc3OCC)c2c1,"inconclusive: 25.1 µM [inhibitor, single point]"
15,CC(C)C[C@H](NC(=O)[C@@H](NC(=O)c1cccc(-c2ccccc2)n1)[C@@H](C)O)B(O)O,active: 0.0607 µM
16,O=C(CN1C(=O)NC2(CCOCC2)C1=O)Nc1ccc2c(c1)OCO2,inactive
17,Cc1ccc(CN2C(=O)C(O)(c3c[nH]c4ccccc34)c3cc(Cl)ccc32)cc1 (stereo not drawn),"inconclusive: 39.8 µM [inhibitor, single point]"
18,Cc1cccc(-c2nocc2CCC(=O)NC(C)c2ccc(F)cc2)c1 (stereo not drawn),inactive
19,COc1ccc(C2c3c(-c4c(C)cc(C)cc4O)n[nH]c3C(=O)N2Cc2ccco2)cc1 (stereo not drawn),"inconclusive: 39.8 µM [inhibitor, single point]"
20,O=C(c1ccccc1)N1CCC(C(=O)N2CCC(Cc3nc(-c4ccc(F)cc4)no3)CC2)CC1,"inconclusive: 14.1 µM [inhibitor, partial curve, poor fit]"
21,CCn1cnnc1CCNC(=O)c1cc(-c2ccc(C)cc2)nc2ccccc12,"inconclusive: 3.16 µM [inhibitor, single point]"
22,COc1ccc(C(=O)c2cn(Cc3ccc(F)cc3)c3ccc(C)cc3c2=O)cc1,"inconclusive: 7.94 µM [inhibitor, full curve, poor fit]"
23,O=C(c1ccc2nnc(-c3ccc(F)cc3)n2c1)N1CCOCC1,inactive

row,Compound,Potency
1,Oc1cc(O)c2c(c1)O[C@H](c1ccc(O)c(O)c1)[C@H](O)C2,inactive
2,COc1ccccc1-c1cccc(C(=O)N2CCN(C(C)=O)CC2)c1,inactive
3,OC1CC(c2cc(N3CCN(c4nsc5ccccc45)CC3)ncn2)C1 (stereo not drawn),"inconclusive: 15.8 µM [inhibitor, single point]"
4,COc1ccc(S(=O)(=O)N2CC(c3nc(-c4ccncc4)no3)C2)cc1,inactive
5,COc1cc(=O)n2c(c1C(=O)Nc1cc(F)ccc1C)CCCC2,"inconclusive: 5.01 µM [inhibitor, single point]"
6,Cn1ncc2c(C(=O)CCc3ccc(F)cc3)cc(-c3ccc(Cl)cc3Cl)nc21,inactive
7,Cn1cc(CN2CCN(Cc3ccccc3)CC2)ccc1=O,"inconclusive: 10 µM [inhibitor, partial curve, poor fit]"
8,NCCc1noc(Cc2ccccc2)n1,"inconclusive: 39.8 µM [inhibitor, single point]"
9,O=C(Nc1ccc(F)cc1)c1cccn2cncc12,inactive
10,COc1cccc(-c2ccccc2NC(=O)C2CCN(C/C(C)=C/c3ccccc3)CC2)c1,"inconclusive: 25.1 µM [inhibitor, single point]"
11,CCc1ccc(CN(Cc2cn[nH]c2-c2ccc(OC)cc2)C(=O)Nc2ccc(C)c(F)c2)cc1,"inconclusive: 22.4 µM [inhibitor, single point]"
12,Cc1cccc(C(=O)NC(C(=O)N2CCCC2)C2CCN(C(=O)c3cccs3)CC2)c1 (stereo not drawn),inactive
13,N#Cc1ccc2nc([C@H]3CCN(Cc4ccccn4)C3)[nH]c2c1,inactive
14,CCc1ccc(C(=O)c2cn(CC(=O)Nc3ccc(OC)c(OC)c3)c3ccc(C)cc3c2=O)cc1,"inconclusive: 39.8 µM [inhibitor, single point]"
15,O=[N+]([O-])c1cccc(-c2noc([C@@H]3C[C@@H](O)CN3Cc3cccs3)n2)c1,inactive
16,O=C(NCc1ccco1)[C@@H]1Cc2nc[nH]c2CN1Cc1ccc(Cl)cc1,"inconclusive: 50.1 µM [inhibitor, partial curve, poor fit]"
17,Cc1cccc(CN2CCN(C(=O)c3cnc4ccccn4c3=O)CC2=O)c1,"inconclusive: 39.8 µM [inhibitor, single point]"
18,CCCn1nccc1C(=O)N1CCCC(c2[nH]ncc2Cc2ccccc2)C1 (stereo not drawn),inactive
19,O=C(c1cccnc1)N1CCCC(c2noc(COc3ccccc3)n2)C1 (stereo not drawn),inactive
20,O=C(CCN1N=C(c2ccccc2)CCC1=O)NCCc1ccc(Cl)cc1,"inconclusive: 22.4 µM [inhibitor, single point]"
21,COCCN1C(=O)c2[nH]nc(-c3ccccc3O)c2C1c1ccc(Cl)c(Cl)c1 (stereo not drawn),"inconclusive: 39.8 µM [inhibitor, single point]"
22,CCCC1=Nc2cc(C(=O)NC(C)c3ccccc3)ccc2Sc2ccc(C)cc21 (stereo not drawn),"inconclusive: 35.5 µM [inhibitor, single point]"
23,Cc1ccc(CN(Cc2ccco2)C(=O)COc2cc(C)c(Cl)c(C)c2)cc1,"inconclusive: 22.4 µM [inhibitor, single point]"

row,Compound,Potency
1,CN1C(=O)c2ccccc2Sc2ccc(NC(=O)COc3ccc(F)cc3)cc21,"inconclusive: 7.08 µM [inhibitor, single point]"
2,CCN(CC)C1(Cc2cc(COC)on2)COC1,"inconclusive: 70.8 µM [inhibitor, single point]"
3,COc1ccc(-c2noc(CNC(=O)c3ccco3)n2)cc1,"inconclusive: 39.8 µM [inhibitor, single point]"
4,CSc1ccc(-c2cccc(C(=O)NCCNC(=O)Cc3ccc(F)cc3)c2)cc1,inactive
5,Cc1ccccc1C(=O)Nc1nnc(S(=O)(=O)N2c3ccccc3CC2C)s1 (stereo not drawn),"inconclusive: 7.08 µM [inhibitor, single point]"
6,O=C(NCc1cccs1)C1CCCCN1Cc1ccc(-c2ccsc2)cc1 (stereo not drawn),"inconclusive: 12.6 µM [inhibitor, partial curve, poor fit]"
7,Cc1c(NS(=O)(=O)c2ccccc2)cc(C(C)C)c(O)c1S(=O)(=O)c1ccc(Cl)cc1,"inconclusive: 22.4 µM [inhibitor, partial curve, poor fit]"
8,COC[C@@H]1CN(Cc2cccc(OC)c2OC)C[C@H]1c1ccncc1,inactive
9,Cc1ncc(C(=O)N2C[C@@H](C(=O)O)[C@H](c3ccc4c(c3)OCO4)C2)c(C)n1,"inconclusive: 39.8 µM [inhibitor, single point]"
10,c1ccc(N2CCN(c3cc4c(cn3)CN(Cc3ccncc3)CCN4)CC2)nc1,inactive
11,COc1ccc(-c2cnc(NC(=O)Cc3ccccc3)c3c2CCO3)cn1,inactive
12,COc1cccc(CCC2CCCN(C(=O)c3ccsc3)C2)c1 (stereo not drawn),inactive
13,CCc1nc2c(c(-c3ccc(Cl)cc3)n1)CN(C(=O)C1CCCC1)CC2,"inconclusive: 11.2 µM [inhibitor, single point]"
14,CN1CCC2(CCC1=O)CN(C(=O)N1CCOCC1)CCN2C (stereo not drawn),inactive
15,O=C(C1CCCCC1)N1CC[C@H](c2nnc(-c3cccnc3)o2)C1,inactive
16,O=C(NCc1ccc(C(F)(F)F)cc1)c1nc2cccnc2n(C2CC2)c1=O,inactive
17,O=C(Cc1ccc(N(Cc2cccc(F)c2)C(=O)c2ccco2)cc1)Nc1ccccc1,"inconclusive: 22.4 µM [inhibitor, single point]"
18,COCC(=O)N1CCC(c2nn(-c3ccc(OC)cc3)c(=O)[nH]2)CC1,"inconclusive: 39.8 µM [inhibitor, single point]"
19,Cc1ccc(NC(=O)c2ccc(NC(=O)N3CCSc4nc(C)cc(C)c43)cc2)c(Cl)c1,"inconclusive: 10 µM [inhibitor, single point]"
20,O=C(Cn1nc2c(cc1=O)CCCC2)Nc1ccccc1C(F)(F)F,"inconclusive: 7.08 µM [inhibitor, single point]"
21,O=C1NC2(CCN(C(=O)c3ccc(C(F)(F)F)cc3)C2)Oc2ccccc21 (stereo not drawn),inactive
22,COCCn1cnc2ccc(-c3ccnn3C)nc2c1=O,inactive
